Data as given in the supplement of paper PMC12217912.
This is one part of the list. The full chains were built here from the parent and the listed change. Inactive controls read about 0.05.

B1: TEV protease; numbered along this chain (parent)
chain: MGESLFKGPRDYNPISSSICHLTNESDGHTTSLYGIGFGPFIITNKHLFRRNNGTLVVQSLHGVFKVKDTTTLQQHLVDGRDMIIIRMPKDFPPFPQKLKFREPQREERICLVTTNFQTKSMSSMVSDTSCTFPSGDGIFWKHWIQTKDGQCGSPLVSTRDGFIVGIHSASNFTNTNNYFTSVPKNFMELLTNQEAQQWVSGWRLNADSVLWGGHKVFMVKPEEPFQPVKEATQL

Variants of: B1
Test: raw area under fraction-flipped curve 0-4 h after induction (AUC4h, not background-subtracted), DNA-recorder readout of cleavage of the substrate (dimensionless); higher = more cleavage of the substrate by the protease variant
Settings: temperature: 34 °C; time window: 0-4 h after rhamnose induction
Experimental: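 In vivo DNA recorder in E. coli TOP10(DE3) ΔrhaA at 34 °C. Each TEVp single-site mutant (parent TEVp 0) is paired with a single-site variant of the 7-mer TEVs (canonical ENLYFQ|S). The substrate sits between flexible linkers in a Bxb1-sfGFP-TEVs-SsrA fusion, so cleavage stabilises Bxb1 and speeds flipping of a recombination array, read by NGS. The value is the raw area under the fraction-flipped curve over 0-4 h after rhamnose induction (AUC4h), with ≥20 reads per time point. It is not background-subtracted; inactive controls average about 0.047.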
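Further: Bxb1 expression induced with 0.2% (w/v) L-rhamnose at OD600 near 0.5, cultures sampled hourly, flipped fraction per protease–substrate barcode pair counted by paired-end Illumina sequencing.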

T147A
area with substrate CNLYFQS: 0.068
area with substrate FNLYFQS: 0.0634
area with substrate GNLYFQS: 0.057
area with substrate HNLYFQS: 0.0457
area with substrate KNLYFQS: 0.0494
area with substrate SNLYFQS: 0.0476
area with substrate TNLYFQS: 0.061
area with substrate VNLYFQS: 0.0605
area with substrate WNLYFQS: 0.0589
area with substrate YNLYFQS: 0.0639

K148V
area with substrate CNLYFQS: 0.0672
area with substrate GNLYFQS: 0.0666
area with substrate HNLYFQS: 0.0705
area with substrate INLYFQS: 0.0659
area with substrate KNLYFQS: 0.0641
area with substrate LNLYFQS: 0.0674
area with substrate NNLYFQS: 0.0737
area with substrate TNLYFQS: 0.0672
area with substrate VNLYFQS: 0.0057
area with substrate WNLYFQS: 0.0641

K148H
area with substrate CNLYFQS: 0.0631
area with substrate FNLYFQS: 0.069
area with substrate GNLYFQS: 0.0598
area with substrate HNLYFQS: 0.0671
area with substrate INLYFQS: 0.0585
area with substrate KNLYFQS: 0.0763
area with substrate LNLYFQS: 0.0647
area with substrate MNLYFQS: 0.0586
area with substrate PNLYFQS: 0.0375
area with substrate QNLYFQS: 0.0592
area with substrate RNLYFQS: 0.0549
area with substrate SNLYFQS: 0.0761
area with substrate TNLYFQS: 0.0585
area with substrate VNLYFQS: 0.0609
area with substrate WNLYFQS: 0.0596
area with substrate YNLYFQS: 0.0709

S127W
area with substrate CNLYFQS: 0.0593
area with substrate FNLYFQS: 0.0884
area with substrate GNLYFQS: 0.0882
area with substrate HNLYFQS: 0.0539
area with substrate INLYFQS: 0.0636
area with substrate KNLYFQS: 0.0736
area with substrate LNLYFQS: 0.0752
area with substrate MNLYFQS: 0.0533
area with substrate NNLYFQS: 0.0867
area with substrate VNLYFQS: 0.0476
area with substrate WNLYFQS: 0.0417
area with substrate YNLYFQS: 0.0572

S127C
area with substrate CNLYFQS: 0.079
area with substrate FNLYFQS: 0.0742
area with substrate GNLYFQS: 0.0708
area with substrate HNLYFQS: 0.0765
area with substrate KNLYFQS: 0.0513
area with substrate LNLYFQS: 0.0741
area with substrate MNLYFQS: 0.0734
area with substrate PNLYFQS: 0.0704
area with substrate SNLYFQS: 0.0602
area with substrate TNLYFQS: 0.0505
area with substrate VNLYFQS: 0.0728
area with substrate WNLYFQS: 0.0585
area with substrate YNLYFQS: 0.0712

S127Q
area with substrate CNLYFQS: 0.0584
area with substrate FNLYFQS: 0.0515
area with substrate HNLYFQS: 0.0831
area with substrate INLYFQS: 0.0749
area with substrate KNLYFQS: 0.0657
area with substrate LNLYFQS: 0.0598
area with substrate MNLYFQS: 0.066
area with substrate PNLYFQS: 0.0787
area with substrate SNLYFQS: 0.0582
area with substrate TNLYFQS: 0.0726
area with substrate VNLYFQS: 0.0611
area with substrate WNLYFQS: 0.0477

M125G
area with substrate CNLYFQS: 0.0632
area with substrate FNLYFQS: 0.0459
area with substrate HNLYFQS: 0.0626
area with substrate KNLYFQS: 0.0711
area with substrate LNLYFQS: 0.0141
area with substrate PNLYFQS: 0.0706
area with substrate SNLYFQS: 0.0447
area with substrate TNLYFQS: 0.0628
area with substrate YNLYFQS: 0.06

M125H
area with substrate CNLYFQS: 0.0495
area with substrate FNLYFQS: 0.0542
area with substrate HNLYFQS: 0.0644
area with substrate INLYFQS: 0.0641
area with substrate KNLYFQS: 0.0609
area with substrate LNLYFQS: 0.0611
area with substrate MNLYFQS: 0.0582
area with substrate NNLYFQS: 0.0557
area with substrate PNLYFQS: 0.0742
area with substrate RNLYFQS: 0.0551
area with substrate TNLYFQS: 0.062
area with substrate VNLYFQS: 0.079
area with substrate WNLYFQS: 0.0617
area with substrate YNLYFQS: 0.0668

M125C
area with substrate CNLYFQS: 0.0733
area with substrate LNLYFQS: 0.0626
area with substrate PNLYFQS: 0.0561
area with substrate TNLYFQS: 0.0635
area with substrate VNLYFQS: 0.0771
area with substrate WNLYFQS: 0.06

M125Q
area with substrate CNLYFQS: 0.0655
area with substrate FNLYFQS: 0.0711
area with substrate GNLYFQS: 0.0739
area with substrate HNLYFQS: 0.0716
area with substrate INLYFQS: 0.0611
area with substrate KNLYFQS: 0.0723
area with substrate LNLYFQS: 0.0588
area with substrate NNLYFQS: 0.07
area with substrate PNLYFQS: 0.062
area with substrate QNLYFQS: 0.0823
area with substrate RNLYFQS: 0.0674
area with substrate SNLYFQS: 0.0634
area with substrate TNLYFQS: 0.0624
area with substrate VNLYFQS: 0.066
area with substrate WNLYFQS: 0.0668

M125P
area with substrate CNLYFQS: 0.0817
area with substrate INLYFQS: 0.0685
area with substrate SNLYFQS: 0.0568
area with substrate TNLYFQS: 0.0644
area with substrate VNLYFQS: 0.063
area with substrate WNLYFQS: 0.0506
area with substrate YNLYFQS: 0.0635

M125A
area with substrate CNLYFQS: 0.0806
area with substrate GNLYFQS: 0.0752
area with substrate INLYFQS: 0.0663
area with substrate LNLYFQS: 0.0761
area with substrate TNLYFQS: 0.0991
area with substrate YNLYFQS: 0.0705

M125I
area with substrate CNLYFQS: 0.074
area with substrate HNLYFQS: 0.0618
area with substrate MNLYFQS: 0.0722
area with substrate TNLYFQS: 0.0563
area with substrate VNLYFQS: 0.0483
area with substrate YNLYFQS: 0.054

S130M
area with substrate CNLYFQS: 0.0169
area with substrate FNLYFQS: 0.0602
area with substrate HNLYFQS: 0.0635
area with substrate LNLYFQS: 0.0678
area with substrate NNLYFQS: 0.0661
area with substrate SNLYFQS: 0.0566
area with substrate TNLYFQS: 0.0652
area with substrate YNLYFQS: 0.0671

S130H
area with substrate CNLYFQS: 0.0833
area with substrate FNLYFQS: 0.0298
area with substrate GNLYFQS: 0.0696
area with substrate INLYFQS: 0.0567
area with substrate MNLYFQS: 0.0618
area with substrate NNLYFQS: 0.0736
area with substrate PNLYFQS: 0.0563
area with substrate RNLYFQS: 0.0578
area with substrate TNLYFQS: 0.0674
area with substrate VNLYFQS: 0.052
area with substrate WNLYFQS: 0.0538
area with substrate YNLYFQS: 0.0494

S130K
area with substrate CNLYFQS: 0.0716
area with substrate FNLYFQS: 0.0558
area with substrate HNLYFQS: 0.0588
area with substrate INLYFQS: 0.0584
area with substrate KNLYFQS: 0.0788
area with substrate LNLYFQS: 0.0743
area with substrate MNLYFQS: 0.0537
area with substrate PNLYFQS: 0.0616
area with substrate SNLYFQS: 0.0597
area with substrate TNLYFQS: 0.0584
area with substrate VNLYFQS: 0.0616
area with substrate WNLYFQS: 0.0552
